According to article PMC10591012, “Mechanistic characterization of disulfide bond reduction of an ERAD substrate mediated by cooperation between ERdj5 and BiP” (The Journal of Biological Chemistry, 2023):

Molecular target: the molecule itself
Experiment: nonreducing SDS-PAGE; purified J-chain (5 uM) with or without 2.5-10 mM GSH at 30 °C, quenched with NEM, CBB G-250 staining; disulfide-linked oligomers

B1: PA-tagged human J-chain (disulfide-linked J-chain oligomers) (natural protein)
chain: not shown
notes: immunoglobulin J-chain, human; eight cysteine residues, ~25 kDa per monomer as printed; cloned into pCAGGS with an N-terminal PA tag; Purified as disulfide-linked higher-order oligomers of unstated size; also called PA-J-chain; not shown: PA, N-terminal, kept
  binding result: binds
